# Measurements from PubChem BioAssay AID504832 (National Center for Advancing Translational Sciences (NCATS), 2011).
# Hit rate of the full screen: of about 310,000 compounds, about 18,000 (5.8%) were called active. The shares of active, inactive and inconclusive entries below differ from those in the screen. The call rests on the fitted dose curve; in most records, active means well fitted inhibition curve with a large enough effect; inconclusive means small, poorly fitted or top-dose-only effect, or another doubt; inactive means no such curve, though single readings can be large or run the other way. No potency is given beside an inconclusive call; the fits are too rough.
# Assay: Primary qHTS for delayed death inhibitors of the malarial parasite plastid, 48 hour incubation
# Conditions: P. falciparum luciferase growth in erythrocytes; series mostly up to 28.7 µM
# In short: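 Read-out is firefly luciferase luminescence from an integrated reporter in P. falciparum, so falling signal marks reduced parasite growth. Infected erythrocytes were at 2% hematocrit and 0.1% parasitemia (final) in Albumax-supplemented RPMI 1640.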
# On the % scale 0 is the no-effect control and ±100 the full control effect; potency means the concentration at half of the fitted maximal effect; tags describe the fitted curve by direction and shape.
Structure (SMILES),"activity change, negative = inhibition",Potency
COc1cccc(Nc2nc(C)nc3c2oc2ccccc23)c1,inactive: 5.55% [at 0.00184 µM],
Cc1ccc(SCC(=O)N2c3ccccc3Sc3ccccc32)cc1,,"inconclusive [inhibitor, single point]"
COc1ccc(OCc2cc(C(=O)NC(C)Cc3cccnc3)no2)c(Cl)c1 (configuration not stated),,inactive
O=C(NCc1cccnc1)c1cccc(S(=O)(=O)Nc2cccc(Cl)c2)c1,,"inconclusive [inhibitor, single point]"
Cc1nc(SCC(=O)Nc2ccc(CN3CCCC3)cc2)c2c(C)c(C)sc2n1,,active: 9.28 µM
CC(C)CCOc1ccc(C2(C)NC(=O)NC2=O)cc1 (configuration not stated),,"inconclusive [inhibitor, full curve, poor fit]"
CN(C(=O)C1CCC(CNS(=O)(=O)c2cccc3cccnc23)CC1)C1CCCCC1 (configuration not stated),,"inconclusive [inhibitor, partial curve, poor fit]"
CCOc1cc(/C=C2/NC(=O)N(CC(=O)OC)C2=O)ccc1OC,,"inconclusive [inhibitor, partial curve, poor fit]"
COC(=O)[C@]1(C)N[C@H](c2ccc(-c3ccccc3)cc2)[C@@H]2C(=O)N(C)C(=O)[C@@H]21,,"inconclusive [inhibitor, partial curve, poor fit]"
O=c1cc(C(F)(F)F)nc(SC/C=C/c2ccccc2)[nH]1,,inactive
S=C1NCN(Cc2ccco2)CN1c1ccccc1,,"inconclusive [inhibitor, full curve, poor fit]"
CN(CCCNC(=O)c1ccc(N2CCCC2=O)cc1)c1ccccc1,,"inconclusive [inhibitor, single point]"
O=C(Nc1ccc2c(c1)OCO2)c1cc(-c2ccncc2)nc2ccccc12,,"inconclusive [inhibitor, partial curve, poor fit]"
C(=C\c1nc(-c2cccnc2)no1)/c1ccccc1,,inactive
Cc1ccc(NC(=S)N2CCc3[nH]c4ccccc4c3C2)cc1,,inactive
Cc1cc(=O)c2c(O)c(O)ccc2o1,,"inconclusive [inhibitor, partial curve]"
CCOC(=O)c1nnn(-c2nonc2N)c1CSc1ccc(C)cc1,,"inconclusive [inhibitor, partial curve, poor fit]"
c1ccc(-n2nnnc2Sc2ncnc3sc4c(c23)CCCC4)cc1,,"inconclusive [inhibitor, full curve, poor fit]"
COc1ccc2[nH]c3c(c2c1)CCN1C(=O)N([C@@H](C)C(=O)NCc2ccc(F)cc2)C(=O)[C@]31C,,"inconclusive [inhibitor, single point]"
CCOc1ccccc1NC(=O)c1sc2ncn(CC(=O)N3CCOCC3)c(=O)c2c1C,,inactive
O=C(Nc1ccc2c(c1)N(S(=O)(=O)c1cccs1)CCC2)c1c(F)cccc1F,,"inconclusive [inhibitor, partial curve]"
COc1cc2c(cc1OC)C1=C(C#N)COCN1CC2,,"inconclusive [inhibitor, partial curve]"
CN1C(=O)CN2CCc3ccccc3C2c2cc(Cl)ccc21 (configuration not stated),,"inconclusive [inhibitor, partial curve, poor fit]"

Structure (SMILES),"activity change, negative = inhibition",Potency
CC(C)(C)CC(=O)NC(=S)Nc1ccccc1C(F)(F)F,,"inconclusive [inhibitor, single point]"
CCC(C)NC(=S)Nc1ccccc1 (configuration not stated),,"inconclusive [inhibitor, single point]"
CCc1cc2ccccc2nc1Cl,,inactive
CCCCC(=O)N(CCOC)c1nnc(-c2cccnc2)s1,,inactive
S=c1[nH]nc(-c2cccnc2)n1/N=C/C(Cl)=C\c1ccccc1,,"inconclusive [inhibitor, single point]"
COCCN(C(=O)CSc1nnc(-c2ccc(C(C)(C)C)cc2)n1N)c1c(N)n(CC(C)C)c(=O)[nH]c1=O,,"inconclusive [inhibitor, single point]"
O=C(CCC(=O)c1cccs1)NCc1ccncc1,,"inconclusive [inhibitor, partial curve, poor fit]"
Cc1ccc(S(=O)(=O)NC(C)C(c2cccs2)N2CCN(C)CC2)cc1 (configuration not stated),,inactive
COc1cc(C(=O)N/N=C/c2ccc(OC)c(CN3CCN(c4ccc(F)cc4)CC3)c2)ccc1O,,"inconclusive [inhibitor, single point]"
O=C(CCCN1C(=O)NC2(CCCC2)C1=O)Nc1ccc(F)cc1,,"inconclusive [inhibitor, single point]"
O=C1CCC(C(=O)N2CCC(O)CC2)CN1CCc1ccc(Cl)cc1 (configuration not stated),,inactive
COc1ccc2c(c1)CCC/C2=N\Nc1nc(C(=O)NN)cs1,,active: 10.4 µM
COc1cc(/C=N/NC(=O)c2ccccc2NS(=O)(=O)c2cccs2)ccc1O,,"inconclusive [inhibitor, partial curve]"
Cc1ccc(NC(=S)N/N=C2/CCCCc3ccccc32)cc1,,"inconclusive [inhibitor, partial curve]"
CC(C)(CNC(=O)c1ccc([N+](=O)[O-])c(Cl)c1)CNC(=O)c1ccc([N+](=O)[O-])c(Cl)c1,,"inconclusive [inhibitor, partial curve]"
COc1ccc(C2Nc3ccccc3C(=O)N2Cc2ccccc2)cc1Cn1nnc2ccccc21 (configuration not stated),,active: 3.7 µM
CC(C)(C)CC(C)(C)c1ccc(O)c(-n2nc3ccccc3n2)c1,,"inconclusive [inhibitor, single point]"
CCCCOc1ccc(C(=O)N/C(=C\c2cccc([N+](=O)[O-])c2)C(=O)OC(C)C)cc1,,active: 0.586 µM
CC(C)n1c(=S)[nH]c2cc(Cl)ccc21,,"inconclusive [inhibitor, single point]"
CNC(=O)NC(=O)C(OC(=O)CCNS(=O)(=O)c1ccccc1)c1ccccc1 (configuration not stated),,"inconclusive [inhibitor, single point]"
Cc1ccc(NS(=O)(=O)c2ccc3c(c2)n(C)c(=O)c(=O)n3C)c(C)c1,,"inconclusive [inhibitor, single point]"
CCNC(=O)CSC1=N/C(=C\c2ccc(O)c(OCC)c2)C(=O)N1c1ccc(OC(F)F)cc1,,"inconclusive [inhibitor, partial curve, poor fit]"
O=C(CS(=O)(=O)c1ccccc1)c1cc2cc(F)ccc2oc1=O,,inactive

Structure (SMILES),"activity change, negative = inhibition",Potency
C/C(=N\NC(=O)c1c(Cl)c(C)nn1C)c1ccc(NC(=O)C2CCC2)cc1,,"inconclusive [inhibitor, single point]"
C[n+]1ccc(/C=C/c2c[nH]c3ccc(F)cc23)cc1,,active: 0.37 µM
CCOc1cc(CN2CCC(CO)(Cc3cccc(C(F)(F)F)c3)CC2)ccc1OC,,"inconclusive [inhibitor, partial curve, poor fit]"
CCOc1ccccc1NC(=O)c1ccccc1-c1ccccc1,,inactive
COc1ccc(S(=O)(=O)N2CCCCC2)cc1NC(=O)c1ccc([N+](=O)[O-])o1,,"inconclusive [inhibitor, full curve, poor fit]"
CC(C)CNc1oc(-c2ccc(F)cc2)nc1C#N,,inactive
CCOC(=O)c1c(-c2ccc(C)cc2)csc1NC(=O)c1cc2ccccc2oc1=O,,"inconclusive [inhibitor, partial curve]"
O=c1c2ccccc2nc(SCc2ccccc2F)n1C1CCCC1,,inactive
CCn1cc(Br)c(C(=O)Nc2ccc(C(=O)OC(C)C)cc2)n1,,"inconclusive [inhibitor, partial curve, poor fit]"
CC1CCCN(C(=O)C2CCN(c3nc(-c4ccccc4)nc4c3CCC4)CC2)C1 (configuration not stated),,"inconclusive [inhibitor, partial curve]"
CCc1ccc(-c2cc(N)n(-c3ccccc3)n2)cc1,,inactive
COc1cc(C(=O)Nc2sc3c(c2C#N)CCN(C(C)=O)C3)cc(OC)c1OC,,"inconclusive [inhibitor, single point]"
O=C(c1ccco1)N1CCN(C(c2ccccc2Cl)c2nnnn2Cc2ccco2)CC1 (configuration not stated),,"inconclusive [inhibitor, partial curve]"
O=C(NCc1cccc(Cl)c1)c1ccc(CS(=O)Cc2ccc(Cl)cc2)o1 (configuration not stated),,inactive
Cc1ccccc1NC(=O)N(CCc1nc2ccccc2[nH]1)Cc1ccccc1,,"inconclusive [inhibitor, partial curve]"
Cc1cc(NC(=O)c2cc(-c3ccc(C)c(C)c3)nc3ccccc23)no1,,active: 0.828 µM
COc1ccc(CNC(=O)CSc2nc3c(oc4ccccc43)c(=O)n2CC2CCCO2)cc1 (configuration not stated),,"inconclusive [inhibitor, single point]"
CC(C)c1ccc(C(O)P(=O)(OCc2ccccc2)c2ccc(N(C)C)cc2)cc1 (configuration not stated),,"inconclusive [inhibitor, single point]"
CC1(C)CC(NC(=O)c2cc([N+](=O)[O-])cc([N+](=O)[O-])c2)CC(C)(C)N1,,"inconclusive [inhibitor, partial curve, poor fit]"
CC1=NN(C(N)=S)C(=O)C1N=Nc1ccc(Cl)cc1 (configuration not stated),,"inconclusive [inhibitor, partial curve]"
CCCCC(=O)Nc1nc(C)c(-c2csc(Nc3ccc(Cl)cc3)n2)s1,,active: 4.65 µM
